The RNAGym collection of RNA variant scans (doi:10.1073/pnas.2313332121)
Variants at the background level are over-represented here.

B1: TPR 5TU (parent)
chain: GGAUCUUCUCGAUCUAACAAAAAAGACAAAUCUGCCACAAAGCUUGAGAGCAUCUUCGGAUGCAGAGGCGGCAGCCUUCGGUGGCGCGAUAGCGCCAACGUUCUCAACUAUGACACGCAAAACGCGUGCUCCGUUGAAUGGAGUUUAUCAUG

Variants of: B1
Assay: polymerase ribozyme fitness, log enrichment relative to wild type (log ratio); higher = more active; in vitro selection for triplet polymerase activity
Method in brief: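 In triplicate, a single round of in vitro selection was run on each mutant library, PCR-built and transcribed, covering one subunit of a heterodimeric triplet polymerase ribozyme. Frozen incubation at −7 °C followed annealing with a biotinylated primer, partner subunit and triplets, and extended constructs were then gel-excised, streptavidin-captured and taken through RT-PCR. Fitness is the logarithm of genotype enrichment over wild-type enrichment, from inverse-variance-weighted replicate averages of Illumina-sequenced inputs and outputs. […] only genotypes with ≥10 input reads and ≥1 read per output were kept.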

Row | Variant | polymerase ribozyme fitness (log ratio)
1 | A73G C87G U146G | ≤ -4.2
2 | A73G G86A A137U | ≤ -4.2
3 | C72U C87A | ≤ -4.2
4 | A73C C96U G141U | ≤ -4.2
5 | A73G G81A C85U U101C C149A | ≤ -4.2
6 | C76G A138C U145A | ≤ -4.2
7 | C75U A91U | ≤ -4.2
8 | G74A C85G G141A | ≤ -4.2
9 | U78G C85U G126U | ≤ -4.2
10 | C75U G92U G112C A113U C114G | ≤ -4.2
11 | G80U G83C G100U A106G | ≤ -4.2
12 | C75G G86A C99U | ≤ -4.2
13 | G80A C114U A137C | -3.92
14 | U77C C105U U139A | ≤ -4.2
15 | C76A A97G | -1.4
16 | C76U G112A G152A | ≤ -4.2
17 | C79U C85A U111A G141C | ≤ -4.2
18 | G80C G94A | ≤ -4.2
19 | C76U C85U C99G | -1.05
20 | G80A G88U C149A | ≤ -4.2
21 | C79A C96A C131G | ≤ -4.2
22 | U77G A122U | ≤ -4.2
23 | G81A G88U C108G C116U | ≤ -4.2
24 | U77A G81A A113U U134G | ≤ -4.2

Row | Variant | polymerase ribozyme fitness (log ratio)
25 | U82A A106U C116U G126U U145C | -2.88
26 | C76U A110G A122G G140C | ≤ -4.2
27 | A73G A97G | 0.222
28 | G81C C93U U101G | 0.439
29 | C72U C95U C96U U146A | -2.06
30 | G81C G140C | -3.7
31 | U82A U146A | -0.606
32 | A73U C108U C149G G152A | ≤ -4.2
33 | G74A A91G | ≤ -4.2
34 | U78A C93G C108U | ≤ -4.2
35 | G81C G84U G126C | -2.04
36 | G74A U77G G83A | ≤ -4.2
37 | U77A G94C C95G U134A | ≤ -4.2
38 | U77G C99U A147C | ≤ -4.2
39 | U78G G141C | ≤ -4.2
40 | C79A C103G | ≤ -4.2
41 | C75A C95U C108U C114U | ≤ -4.2
42 | C76G C87A | ≤ -4.2
43 | G80A C85A A142C | -2.14
44 | A73G U104C | -0.284
45 | C79G G84U G92C G94C C116A | ≤ -4.2
46 | C79U C85A C132A | ≤ -4.2
47 | G81A G152U | -3.09
48 | G81A G94C C99U A138U | ≤ -4.2

Row | Variant | polymerase ribozyme fitness (log ratio)
49 | C76U C93A | -2.34
50 | G81U G92U U148G G152A | -3.95
51 | A73U A119G C125U G140A | ≤ -4.2
52 | G81U C85A U139G | -0.703
53 | A73G C114U | -2.66
54 | C76U A91U | -4.13
55 | U77G C93A A97U G133C | ≤ -4.2
56 | G74U G81C A121C U146G | ≤ -4.2
57 | C72U U77A G141C | ≤ -4.2
58 | C79A U151C | ≤ -4.2
59 | A73U C93U C103A U104A A115C | ≤ -4.2
60 | C75U G88A A147G | ≤ -4.2
61 | U78G U127C | ≤ -4.2
62 | G80U U109C G143C | -4.04
63 | A73U C75G G88C | ≤ -4.2
64 | C75A G84U A89G G92C U127A C129G U146A C149G | ≤ -4.2
65 | G74C C103G G141A U145G A147U G152A | ≤ -4.2
66 | C75U U134A | -1.13
67 | G80C C95U C99A G133U | ≤ -4.2
68 | U82A A137U U146G | ≤ -4.2
69 | A73G U145G | -0.0134
70 | U77G G86C C105U U130G | ≤ -4.2
71 | G81C G141C | -0.0339
72 | C76A G83C A137G | -3.62

Row | Variant | polymerase ribozyme fitness (log ratio)
73 | C76A C96U U145G | -0.785
74 | C76U G88A G152U | ≤ -4.2
75 | U82A A91G C105U | -2.53
76 | C75A C95U C108G G140U | ≤ -4.2
77 | C79G A110G | ≤ -4.2
78 | C76A C125G U144G | -2.22
79 | C79A A106G G140C | ≤ -4.2
80 | C76A C96G | -1.51
81 | G80A A119U | -0.405
82 | G81A C105U G124A G128U U135A A138C | ≤ -4.2
83 | C76G C87A U111A | ≤ -4.2
84 | U77C C87G A142G | ≤ -4.2
85 | G81C C85G C95G | -3.07
86 | G81A C95A A98U | -0.289
87 | U78G G94A A122G | ≤ -4.2
88 | A73G C93A U146C | -2.15
89 | U78G A89U C93G A106G C118G U145C A150U U151G | ≤ -4.2
90 | G74A A97U C103A C125U G136U U145G | ≤ -4.2
91 | C79G U109A | ≤ -4.2
92 | C79U C99A G100C | ≤ -4.2
93 | C76U C96U | 0.0365
94 | G74A G84A A89G | ≤ -4.2
95 | G81C C85U | 0.0549
96 | U78G G92A G141A | ≤ -4.2

Row | Variant | polymerase ribozyme fitness (log ratio)
97 | C79G C85U C93A A106G A137U G141U | ≤ -4.2
98 | C72U A73C A106C C125A C132A | ≤ -4.2
99 | C72U C76G G88U U101G C125G | ≤ -4.2
100 | A73G C85A C87A U101C A115G U130A C131A | ≤ -4.2
101 | G74A U82G G94U G136A | ≤ -4.2
102 | C79G U101G U109G U135C U148A | ≤ -4.2
103 | G81A C93U C95U | -1.11
104 | C79U G84A | -3.04
105 | G81A G88A | ≤ -4.2
106 | U77A G80C U90G C105U U111C | ≤ -4.2
107 | A73G A106C U111A U144A | ≤ -4.2
108 | C75G A91U U144A U145C | ≤ -4.2
109 | G81C A89U C96G | -0.784
110 | G80C C87U A89C | ≤ -4.2
111 | A73U C95A U104G | -4.05
112 | C79U C108G U109G U139G U145C | ≤ -4.2
113 | G80A U144G | 1.27
114 | G80C C103G G124A A147G | ≤ -4.2
115 | G81A G84C A115G C125A | ≤ -4.2
116 | G80U A110C G141U | ≤ -4.2
117 | G74A A89U C93G G140U | ≤ -4.2
118 | G74U C75A G86U A97U A106G A150U | ≤ -4.2
119 | G80C U90G C105A A113U U127G U135A | ≤ -4.2
120 | C75A C96G G141U | ≤ -4.2

Row | Variant | polymerase ribozyme fitness (log ratio)
121 | C76G U109G A110G | ≤ -4.2
122 | G81U C95U | -1.63
123 | U77A G117U | ≤ -4.2
124 | G81C A91G A107G | ≤ -4.2
125 | C79A G84A C93G G140U | ≤ -4.2
126 | C75G G83C G124U | ≤ -4.2
127 | C79A U82G C93A G141U G152U | ≤ -4.2
128 | G80A C132U | -0.678
129 | G81A C87U G100C G133U G141U | ≤ -4.2
130 | A73G U148A | -3.81
131 | C75G C76G G81U C95G | ≤ -4.2
132 | G80A U104C A138C | ≤ -4.2
133 | C75A G83U A89U U101A G126A A138C | ≤ -4.2
134 | U77C C93U G100A A119U A150C | ≤ -4.2
135 | C76A U78C C99A C105A | ≤ -4.2
136 | U78C C87U G92A A115U | -2.33
137 | G80U G84A G126C C132U U145A | -3.25
138 | U78A C93A G124U | ≤ -4.2
139 | C76G G86A A150U | ≤ -4.2
140 | G80C G83U C118A G141C | -3.94
141 | C76A U104C | -3.57
142 | C75U G128A | -3.95
143 | C75G C93U C108G G124A | ≤ -4.2
144 | A73U U90G C96G U130C U139G | ≤ -4.2

Row | Variant | polymerase ribozyme fitness (log ratio)
145 | G74A A91G C96A C99G | ≤ -4.2
146 | U82G A110G C125G A137U | ≤ -4.2
147 | G81A A91U | ≤ -4.2
148 | C76A C105A G136A | ≤ -4.2
149 | U82C C93G C116G C118U G140A A150C | ≤ -4.2
150 | G80U C103G G152A | ≤ -4.2
151 | G80U C96A U109A | ≤ -4.2
152 | C76A G81U C96U U146C U151C | ≤ -4.2
153 | C79G A122C G140A | ≤ -4.2
154 | U77C G84U A115G | ≤ -4.2
155 | C72U G128U | -3.1
156 | G74U A97U | -4.18
157 | A73G G88C C99A U135A A138U | ≤ -4.2
158 | G81C G143C | -2.03
159 | U77C C96U U145C | ≤ -4.2
160 | G81C C132G | -3.75
161 | C79A A91G A110G | ≤ -4.2
162 | C76U U135G | -2.79
163 | A73G U77C G88C | ≤ -4.2
164 | U82A G86A A98U U134A | -3.68
165 | U77G C99U | ≤ -4.2
166 | C75G G84A C99U G117U A142C U144C | ≤ -4.2
167 | U82C C96G A107C C108G C114U | ≤ -4.2
